In PubChem BioAssay AID624417 (National Center for Advancing Translational Sciences (NCATS), 2012):
Hit rate of the full screen: of about 410,000 compounds, about 6,400 (1.6%) were called active. Inconclusive results, whose numbers are uncertain, are shown with a selection of clear calls. Calls follow the shape of the dose curve; as a rule, active = well fitted inhibition curve with a large enough effect; inconclusive = small, poorly fitted or top-dose-only effect; inactive = no such curve, though single readings can be large or run the other way. Where the call is inconclusive, the potency comes from a doubtful curve fit.

Target: Glucagon-like peptide 1 receptor (Homo sapiens) (UniProt P43220)
Chain of UniProt P43220 (P43220 whole entry, looked up): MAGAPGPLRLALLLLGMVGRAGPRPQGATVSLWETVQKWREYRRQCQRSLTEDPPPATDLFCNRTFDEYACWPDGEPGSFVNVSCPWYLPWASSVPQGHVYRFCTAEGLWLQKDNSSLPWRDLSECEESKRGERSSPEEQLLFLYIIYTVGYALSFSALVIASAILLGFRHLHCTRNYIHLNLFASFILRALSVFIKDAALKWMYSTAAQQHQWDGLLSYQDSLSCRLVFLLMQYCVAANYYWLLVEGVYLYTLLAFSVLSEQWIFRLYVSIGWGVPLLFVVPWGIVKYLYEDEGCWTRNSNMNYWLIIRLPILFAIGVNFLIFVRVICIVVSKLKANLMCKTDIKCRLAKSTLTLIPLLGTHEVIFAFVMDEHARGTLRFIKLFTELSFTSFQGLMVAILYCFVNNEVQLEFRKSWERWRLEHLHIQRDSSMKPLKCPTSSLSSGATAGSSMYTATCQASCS
Test: qHTS of GLP-1 Receptor Inverse Agonists (Inhibition Mode); also: nearly all actives have a fitted effect of over 55% in size
Conditions: HEK293 GLP-1R CRE-luciferase, luminescence, 24 h, GLP-1R form is constitutively active; series mostly up to 38.3 µM
Summary of the method: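 Assay principle: reduced luminescence from a cAMP-responsive reporter in HEK293 cells co-expressing a constitutively active GLP-1R. Conditions: 24 hr compound incubation, 37 deg C, 5% CO2.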
Potency is read from the fitted curve at half-maximal effect; tags tell the direction and shape of the fitted curve.

Potency, inactive:
COc1ccc(OC)c(NC(=O)CCCc2nnc3n(C(C)C)c(=O)c4sccc4n23)c1, Cc1ccc(C)c(N2CCN(C(=O)c3cnn(C(C)(C)C)c3C3CCN(C(=O)OC(C)(C)C)CC3)CC2)c1, Cc1ccc2oc(C(=O)Nc3ccc(S(=O)(=O)N4CCCC(C)C4)cc3)cc(=O)c2c1 (stereo not given), CC(C)Oc1ccc(CCC(=O)N/N=C/c2ccncc2)cc1, COc1ccc(-c2nc(CS(=O)CC(=O)NCCc3ccccc3)c(C)o2)cc1OC (stereo not given), COc1ccc(S(=O)(=O)N(CC(=O)N2CCOCC2)c2cc(Cl)ccc2OC)cc1OC, O=C(CCCN1C(=O)/C(=C/c2ccccc2Cl)SC1=S)NNC(=O)c1ccc(Cl)cc1Cl, COc1ccc(-n2ccnc(NCc3cccs3)c2=O)cc1OC, CCOc1ccccc1CNC(=O)C1CCN(S(=O)(=O)c2c(C)noc2/C=C/c2ccccc2F)CC1

Potency, active:
CN(CC(=O)Nc1cccc(Cl)c1)S(=O)(=O)/C=C/c1ccccc1 10 µM, O=C1CCCCC1Sc1nnc(-c2ccc3c(c2)OCO3)o1 (stereo not given) 3.16 µM

Potency, inconclusive:
Cc1ccc(Cl)cc1-n1nnc(-c2nsc(NC(=O)c3ccccc3Cl)n2)c1C 28.2 µM [inhibitor, single point], CCN(Cc1ccccc1)Cc1ccc(OCc2ccccc2)cc1 28.2 µM [inhibitor, single point], COc1ccc(CN(C)C[C@@H]2OCCCC[C@H](C)Oc3ccc(NC(=O)Cc4ccccc4)cc3C(=O)N([C@@H](C)CO)C[C@@H]2C)cc1 28.2 µM [inhibitor, single point], COc1cccc(C(=O)NCC2(c3ccccc3)CCCC2)c1 10 µM [inhibitor, partial curve, poor fit], CCN1CCN(c2ccc(S(=O)(=O)N3CCCCC3)cc2NC(=O)COc2cc(C)ccc2Cl)CC1 12.6 µM [inhibitor, single point], COCC1CCN(C(=O)c2ccc3nc(Cc4cccc(Cl)c4)oc3c2)CC1 28.2 µM [inhibitor, single point], COc1ccc(OC)c(-c2nc3cc4ccccc4cc3nc2-c2ccccc2)c1 17.8 µM [inhibitor, single point], Cc1sc(NC(=O)c2ccco2)c(C(c2cccnc2)N2CCN(c3ccc(F)cc3)CC2)c1C (stereo not given) 3.55 µM [inhibitor, full curve], CCc1cccc(NC(=S)N2CCC(c3ccccc3)C2)c1 (stereo not given) 20 µM [inhibitor, single point], CCN(c1ccc(NC(=O)c2ccc(N3CCCC3=O)cc2)cc1)C(C)C 12.6 µM [inhibitor, single point], NNC(=S)Nc1ccc(OC(F)(F)F)cc1 25.1 µM [inhibitor, single point], Cc1ccc(C)c(NC(=S)NCCSc2ccc(Cl)cc2)c1 3.55 µM [inhibitor, partial curve, poor fit], CN(C)c1ccc(CN(CC2CCCO2)C(=O)c2cc3ccccc3o2)cc1 (stereo not given) 31.6 µM [inhibitor, single point], COc1ccc(/C=N/N2CCN(Cc3ccc(C)cc3)CC2)cc1Br 12.6 µM [inhibitor, partial curve, poor fit], COc1cccc(C2=CC(c3ccccc3F)n3ncc(C(=O)Nc4ccc(C)cc4)c3N2)c1 (stereo not given) 11.2 µM [inhibitor, partial curve, poor fit], CC(C)(C)n1nnnc1C(c1ccccc1)N1CCN(c2ccc(C(F)(F)F)cn2)CC1 (stereo not given) 20 µM [inhibitor, single point], COc1cc(C(=O)N/N=C/c2ccc3c(c2)c2ccccc2n3C)ccc1O 28.2 µM [inhibitor, single point], CC1CCCCN1c1c(S(=O)(=O)c2ccc(Cl)cc2)cnc2ccccc12 (stereo not given) 28.2 µM [inhibitor, single point], CCOC(=O)[C@]12CCCC=C1N(CCC1=CCCCC1)C(=O)[C@H](CC(=O)N1CCCCC1)C2 11.2 µM [inhibitor, partial curve, poor fit], CCCC(=O)N1N=C(c2ccccc2)CC1c1cn(C)c2ccccc12 (stereo not given) 3.55 µM [inhibitor, partial curve, poor fit], O=C(Nc1ccc(Cl)cc1)Nc1ccccc1Sc1ncc([N+](=O)[O-])s1 28.2 µM [inhibitor, single point], CCOC(=O)N1CCN(S(=O)(=O)N2CCCC(C(=O)NCCc3ccc(Cl)cc3)C2)CC1 (stereo not given) 10 µM [inhibitor, partial curve], COC(=O)c1cc(CSc2nc3ccccc3c(=O)n2C)oc1C 17.8 µM [inhibitor, partial curve, poor fit], O=C(Nc1ccc(Cl)cc1)Nc1ccccc1C(=O)NCc1ccco1 15.8 µM [inhibitor, single point], CCN1C(=O)[C@H]2[C@@H](c3ccc(-c4cccc(Cl)c4)c(OC)c3)N[C@@](C)(C(=O)OC)[C@H]2C1=O 28.2 µM [inhibitor, single point], C/C(=N\NC(=O)c1cc(-c2cccc(OC(C)C)c2)nc2ccccc12)c1cccnc1 6.31 µM [inhibitor, partial curve, poor fit], Cn1c(=O)oc2cc(S(=O)(=O)Nc3cccc4c3CCCC4)ccc21 28.2 µM [inhibitor, single point], COc1ccc(S(=O)(=O)N2CCc3ccccc32)cc1C(=O)OCc1c(C)noc1C 31.6 µM [inhibitor, single point], O=C(CSc1nnnn1C1CC1)N1CCN(c2ccc(O)cc2)CC1 11.2 µM [inhibitor, partial curve]
